Assay results reported in PMC4336329 (PLoS ONE, 2015).
In all, about 310,000 compounds went through this assay and about 2,200 (0.71%) showed an effect of 50% or more. Effects have a minus sign here. Some of the results follow.

target: human ether-à-go-go-related gene (hERG) potassium channel (human, UniProt Q12809); experiment: primary screen, population patch clamp on CHO cells stably expressing hERG
Sequence (Q12809 whole entry, looked up): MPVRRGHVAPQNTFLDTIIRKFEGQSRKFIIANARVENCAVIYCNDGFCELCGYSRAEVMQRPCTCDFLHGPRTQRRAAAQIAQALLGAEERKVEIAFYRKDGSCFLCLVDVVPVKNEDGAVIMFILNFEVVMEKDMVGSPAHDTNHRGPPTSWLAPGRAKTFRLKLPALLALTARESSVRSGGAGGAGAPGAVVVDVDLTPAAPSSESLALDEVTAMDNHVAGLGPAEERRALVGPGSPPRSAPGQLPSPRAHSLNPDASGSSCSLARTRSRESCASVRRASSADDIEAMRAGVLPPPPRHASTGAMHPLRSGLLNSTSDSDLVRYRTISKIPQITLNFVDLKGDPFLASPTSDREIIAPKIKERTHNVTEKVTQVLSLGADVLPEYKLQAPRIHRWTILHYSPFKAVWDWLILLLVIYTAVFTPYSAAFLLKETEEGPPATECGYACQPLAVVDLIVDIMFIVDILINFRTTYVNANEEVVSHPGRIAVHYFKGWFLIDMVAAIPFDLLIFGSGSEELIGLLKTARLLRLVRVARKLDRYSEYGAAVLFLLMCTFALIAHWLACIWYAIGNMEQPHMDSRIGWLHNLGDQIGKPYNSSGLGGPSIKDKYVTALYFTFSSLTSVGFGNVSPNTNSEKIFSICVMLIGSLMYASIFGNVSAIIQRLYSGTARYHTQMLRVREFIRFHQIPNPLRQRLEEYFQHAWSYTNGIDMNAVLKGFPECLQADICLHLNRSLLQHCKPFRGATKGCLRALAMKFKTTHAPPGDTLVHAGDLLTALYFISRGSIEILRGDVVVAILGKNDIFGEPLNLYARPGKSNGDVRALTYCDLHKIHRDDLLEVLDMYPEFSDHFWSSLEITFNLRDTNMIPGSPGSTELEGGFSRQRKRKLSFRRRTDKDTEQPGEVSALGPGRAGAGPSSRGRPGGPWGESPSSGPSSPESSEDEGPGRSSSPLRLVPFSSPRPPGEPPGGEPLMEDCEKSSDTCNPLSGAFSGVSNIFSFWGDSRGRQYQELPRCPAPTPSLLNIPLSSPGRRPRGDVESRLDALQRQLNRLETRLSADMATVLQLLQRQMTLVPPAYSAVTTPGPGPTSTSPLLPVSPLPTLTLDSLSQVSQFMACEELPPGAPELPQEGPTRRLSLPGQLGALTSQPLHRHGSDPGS

| Compound | hERG current change (%, negative = inhibition) at 1uM |
| --- | --- |
| COc1ccc(NC2CCCN(C(=O)CCOc3ccccc3)C2)cc1 (stereo not shown) | 4.87% |
| O=C(COc1ccc(C(=O)c2ccc(F)cc2)cc1)NCc1ccc(F)cc1 | 9.63% |
| COc1cc(CNCc2cccc(OC)c2OC)cc(OC)c1.O=C(O)C(=O)O | 15.9% |
| COc1cc(OC)cc(C(=O)Nc2ccc3c(c2)CCCN3C(=O)c2cccs2)c1 | 9.55% |
| CC1(C)CN=C(N(Cc2ccccc2)C(=O)Nc2ccccc2)S1 | 9.46% |
| Cc1oc(-c2ccccc2)cc1C(=O)NCc1ccncc1 | 14.5% |
| COc1cc(OC)cc(C(=O)OCC(=O)c2cc(C)n(CC3CCCO3)c2C)c1 (stereo not shown) | -14.6% |
| COc1ccc(-c2[nH]c(-c3ccc(F)cc3)nc2SCC(=O)NCc2ccco2)cc1OC | 19.9% |
| COc1ccc([C@H]2CC(=O)C=C(c3cccc(OC(F)(F)F)c3)C2)cc1 | 8.61% |
| Brc1ccc(Sc2cnc3ccccc3n2)cc1 | 8.32% |
| COC(=O)NC(NS(=O)(=O)c1ccccc1)(C(=O)OC)C(F)(F)F (stereo not shown) | 7.51% |
| COc1ccccc1NS(=O)(=O)c1cc(C(=O)NCc2ccncc2)ccc1C | -1.23% |
| C=CCn1c(=N)c(C(=O)NCCCOC)cc2c(=O)n3cc(C)ccc3nc21 | -41.9% |
| Cc1cccc(NC(=O)CSc2nnc3ccc(-c4ccccn4)nn23)c1 | 6.41% |
| COC(=O)CSc1snnc1-c1ccc(Cl)cc1Cl | 10.2% |
| O=C(Nc1cc2c3c(c1)CC(=O)N3CCC2)c1ccc(Br)o1 | -1.28% |
| CCCN(CC(=O)Nc1cc(Cl)ccc1Cl)C(=O)c1ccc(N2CCCC2=O)cc1 | -0.958% |
| OCC1(Cc2ccc(Cl)cc2)CCN(Cc2ccccc2F)CC1 | -18.4% |
| CCOC(=O)Nc1cccc(NC(=O)c2ccccc2F)c1 | 2.12% |
| O=C(c1ccc2[nH]c3c(c2c1)CCCC3)N1CCN(c2ccc(F)cc2)CC1 | 10% |
| Clc1ccc(-n2ncc3c(N4CCCC4)ncnc32)cc1 | 3.49% |
| COc1ccc(CCN2CC(C(=O)Nc3ccccc3F)CC2=O)cc1OC (stereo not shown) | 2.93% |
| O=C(N/N=C/C=C/c1ccccc1)C(O)c1ccccc1 (stereo not shown) | 5.58% |
| Nc1nnc(SCc2ccc3c(c2)OCO3)s1 | 4.9% |
| COc1ccccc1CC(Cc1nc2ccccc2[nH]1)c1nc2ccccc2[nH]1 (stereo not shown) | -1.64% |
